According to publication PMC4336329 (PLoS ONE, 2015):
Hit rate of the full screen: of about 310,000 compounds, about 2,200 (0.71%) showed an effect of 50% or more. The effect is printed as a negative number. Some of the results follow.

target: human ether-à-go-go-related gene (hERG) potassium channel (human, UniProt Q12809); test: primary screen, population patch clamp on CHO cells stably expressing hERG
Sequence (Q12809 whole entry, looked up): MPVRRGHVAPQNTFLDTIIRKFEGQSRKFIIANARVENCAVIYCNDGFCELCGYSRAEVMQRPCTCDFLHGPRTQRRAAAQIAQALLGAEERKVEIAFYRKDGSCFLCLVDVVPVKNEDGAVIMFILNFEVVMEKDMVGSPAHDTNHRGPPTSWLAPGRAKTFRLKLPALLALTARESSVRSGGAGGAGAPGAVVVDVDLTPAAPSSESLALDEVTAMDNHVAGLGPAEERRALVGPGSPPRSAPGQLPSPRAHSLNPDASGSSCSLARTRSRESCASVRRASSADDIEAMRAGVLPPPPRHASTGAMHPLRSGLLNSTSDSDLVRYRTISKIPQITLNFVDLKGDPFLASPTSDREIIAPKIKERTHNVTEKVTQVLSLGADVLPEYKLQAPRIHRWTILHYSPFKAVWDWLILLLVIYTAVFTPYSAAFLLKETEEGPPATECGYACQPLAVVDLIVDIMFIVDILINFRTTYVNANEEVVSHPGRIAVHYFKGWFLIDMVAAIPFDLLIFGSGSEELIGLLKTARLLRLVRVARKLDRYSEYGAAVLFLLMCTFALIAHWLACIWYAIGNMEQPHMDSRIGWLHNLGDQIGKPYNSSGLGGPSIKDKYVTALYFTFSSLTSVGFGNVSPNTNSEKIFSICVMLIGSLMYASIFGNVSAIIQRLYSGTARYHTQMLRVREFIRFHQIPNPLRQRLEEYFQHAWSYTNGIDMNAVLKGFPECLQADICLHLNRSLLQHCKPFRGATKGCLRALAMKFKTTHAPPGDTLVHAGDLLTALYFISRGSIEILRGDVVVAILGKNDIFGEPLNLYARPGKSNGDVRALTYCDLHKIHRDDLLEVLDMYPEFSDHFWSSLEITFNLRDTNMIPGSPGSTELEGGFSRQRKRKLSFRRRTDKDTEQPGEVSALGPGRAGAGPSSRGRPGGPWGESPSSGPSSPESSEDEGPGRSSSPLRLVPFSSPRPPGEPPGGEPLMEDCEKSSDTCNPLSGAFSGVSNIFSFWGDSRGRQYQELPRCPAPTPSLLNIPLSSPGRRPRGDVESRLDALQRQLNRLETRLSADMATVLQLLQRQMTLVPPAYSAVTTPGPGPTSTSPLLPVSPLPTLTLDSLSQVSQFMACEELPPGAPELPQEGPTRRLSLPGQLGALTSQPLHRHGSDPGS

Row | SMILES | hERG current change (%, negative = inhibition) at 1uM [%]
1 | Cc1cccc(N2CCN(C(=O)C3(S(=O)(=O)c4ccc(Cl)cc4)CC3)CC2)c1C | -1.19
2 | COc1ccc(N2CCN(C(=S)NCCc3ccccc3)CC2)cc1 | 6.06
3 | Cc1ccc2[nH]c3c(=S)nc[nH]c3c2c1 | 14.5
4 | S=C(NCCN1CCOCC1)Nc1ccc(Cl)c(Cl)c1 | 6.71
5 | COc1ccc(N(C(=O)c2snc(C(N)=O)c2N)C(C(=O)NC2CCCC2)c2cccs2)c(OC)c1 (centres unmarked) | 4.77
6 | O=C(CN1C(=O)/C(=C/c2ccco2)SC1=S)NC1CCS(=O)(=O)C1 (centres unmarked) | 13.9
7 | COCCNC(=O)c1cccc(Nc2nc(-c3ccccc3)c3cc(Cl)ccc3n2)c1 | 13.9
8 | CCOC(=O)c1cn(CC)c2ccc(S(=O)(=O)N3CC(C)CC(C)C3)cc2c1=O (centres unmarked) | -1.29
9 | Cc1cc(Cl)ccc1OCCCC(=O)Nc1cccnc1 | 6.84
10 | Cc1ccc(OCCn2cccc2/C=C2/C(=O)NC(=O)N(Cc3ccco3)C2=O)cc1 | 10.8
11 | CCc1nnc(NC(=O)CCc2ccc(C)o2)s1 | 5.48
12 | CC(=O)Nc1ccc2nc(-c3cccnc3)[nH]c2c1 | 16.8
13 | O=C(CNc1ccccc1)NN=C1CCCC1 | 13.4
14 | O=S(=O)(Nc1ccc(-c2ccc3nncn3n2)cc1)c1ccccc1Cl | 7.16
15 | Cc1ccc(-c2ocnc2C(=O)Nc2nc(C)cs2)cc1 | 12.3
16 | c1ccc(CCn2c(C3CC3)nc3ccccc32)cc1 | -11.4
17 | O=C(NCC1CCCO1)NC12CC3CC(CC(C3)C1)C2 (centres unmarked) | 12.6
18 | COc1ccc(C(=O)Nc2ncc(C)s2)cc1S(=O)(=O)N1CCOCC1 | -6.86
19 | COc1ccc(N2CC(C(=O)Nc3ccccc3C(=O)NCc3ccco3)CC2=O)cc1 (centres unmarked) | -17.8
20 | CCCC(=O)Nc1c2c(nn1-c1cccc(Cl)c1)CS(=O)(=O)C2 | -1.85
21 | CC(C)(CNC(=O)CNC(=O)C1CCCCC1)N1CCOCC1 | 1.39
22 | CN(Cc1ccccc1)S(=O)(=O)c1ccc(Cl)c(C(=O)NCc2cccnc2)c1 | 6
23 | COc1ccccc1-n1cnnc1SC(C)C(=O)NCC1CCCO1 (centres unmarked) | 6.96

Row | SMILES | hERG current change (%, negative = inhibition) at 1uM [%]
24 | Cc1ccc(-c2nc(-c3ccccn3)no2)cc1Cl | 1.49
25 | O=C(CNC(=O)c1cccc(OC(F)F)c1)Nc1ccc(Cl)cc1 | 8.48
26 | O=C1NCN(c2ccccc2)C12CCN(c1nnnn1-c1ccccc1)CC2 | 0.0267
27 | COc1ccc(-n2c(SCC(=O)N3CCN(c4ccccc4)CC3)nc3c(c2=O)SCC3)cc1 | -6.97
28 | COc1ccc(C(=O)NCc2ccccc2CN2CCCC2)cc1S(=O)(=O)Nc1ccc(C)cc1 | -31.9
29 | O=C(c1ccccc1)N1CC(COc2ccccc2)OC(c2cccnc2)O1 (centres unmarked) | 3.75
30 | Cc1ccc(C(=O)Nc2cccc(S(=O)(=O)N3CCCC3)c2)o1 | 12.1
31 | Cn1c(=O)[nH]c(=O)c2c1nc(SCC(N)=O)n2Cc1cccc(Br)c1 | 4.47
32 | CN(C)CCCN(C(=O)c1ccc2c(c1)OCCO2)c1nc2ccc(Cl)cc2s1.Cl | -3.81
33 | CS(=O)c1ccccc1O (centres unmarked) | 8
34 | O=C(O)CC1C(=O)NCCN1Cc1cccs1 (centres unmarked) | 0.0703
35 | O=C(CSC1=NNC(c2ccccn2)S1)Nc1ccc(C(F)(F)F)cc1 (centres unmarked) | 13.4
36 | O=C(N[C@@H](Cc1ccccc1)C(=O)N1CCN(S(=O)(=O)c2cccc(F)c2)CC1)c1ccco1 | 6.1
37 | CO/N=C(/CN1CCCCC1)c1ccc(Cl)cc1 | 20.3
38 | CCOc1nc2ccccc2nc1NS(=O)(=O)c1ccc(Cl)cc1 | -2.83
39 | Cc1ccc(C(=O)NCc2ccc(Cl)cc2)cc1S(=O)(=O)N1CCCCC1 | 4.63
40 | COc1ccc(Cl)cc1NC(=O)CN(C)C(=O)c1cc2ccccc2cc1O | 14.5
41 | CC(=O)Cn1c(CN2CCCC2)nc2ccccc2c1=O | 14.6
42 | O=C(CC(NS(=O)(=O)c1ccc(Cl)cc1)c1ccco1)NC1CCCC1 (centres unmarked) | 1.65
43 | O=S(=O)(c1cc(O)ccc1O)c1cccc2c(S(=O)(=O)c3cc(O)ccc3O)cccc12 | 8.99
44 | O=C(CN1C(=O)COc2ccccc21)NCCCN1CCCC1 | 19.5
45 | CC1CC2=C(NC(=S)NC2c2ccccc2F)/C(=C/c2ccccc2F)C1 (centres unmarked) | 20.5
46 | Cc1ncsc1CCC(=O)N1CCCC(Nc2ccc(C(C)C)cc2)C1 (centres unmarked) | 5.15

Row | SMILES | hERG current change (%, negative = inhibition) at 1uM [%]
47 | COC(=O)CCC(=O)OC1(C)C(=O)C2=CN(CCc3ccccn3)C(c3ccc(OC)cc3)=CC2=C(Br)C1=O (centres unmarked) | -3.32
48 | Cc1cc(=O)[nH]c(Nc2ccc(N(C)C)cc2)n1 | 17.7
49 | Cc1ccc(NCc2nc3ccccc3n2C)c(C)c1 | 10.2
50 | COc1cc(NC(=O)COC(=O)c2ccccc2SCC(=O)N2CCCC2)cc(OC)c1 | -14.3
51 | CN1CCN(c2ccc(CNC(=O)c3cc4ccccc4o3)cc2)CC1 | 3.03
52 | O=C(O)CCCC(=O)NS(=O)(=O)c1ccc(Cl)cc1 | 11.7
53 | O=C(COc1ccccc1)N1CCN=C1SCc1ccccc1F | 10.7
54 | Cc1ccc(Cn2nnc3c(=O)n(Cc4cccc(C)c4)cnc32)cc1 | 14.9
55 | CCOC(=O)C(C)n1nc(C)c2sc3ccccc3c2c1=O (centres unmarked) | 5.71
56 | COc1cccc(N2CC(C(=O)Nc3c(C(N)=O)oc4ccccc34)CC2=O)c1 (centres unmarked) | 7.62
57 | Cc1ccc(N(C)C(=O)Oc2cccc3cccnc23)cc1 | 14.8
58 | O=C1CSc2ccc(C(=O)Nc3cccc(S(=O)(=O)Nc4ccc(Br)cc4)c3)cc2N1 | 12
59 | Cc1ccc(NC(=O)c2ccc(CSc3nnc(C)s3)cc2)cc1 | 13.2
60 | CCOc1ccc(C2C(C(=O)Nc3cc(C)on3)c3ccccc3C(=O)N2CCN2CCOCC2)cc1 (centres unmarked) | 16.4
61 | Cc1ccccc1C(=O)NNC(=O)c1ccc(F)cc1 | -0.329
62 | O=C1CC(c2ccc(F)cc2)Cc2nc(NCc3ccco3)ncc21 (centres unmarked) | 5.29
63 | Cc1ccc(NC(=O)c2ccsc2)cc1NS(C)(=O)=O | 15.1
64 | CC(C)CN(C(=O)c1ccc(Br)o1)C1CCS(=O)(=O)C1 (centres unmarked) | -0.549
65 | O=C(CCC1CCCN(C(=O)c2cc(C3CC3)[nH]n2)C1)N1CCN(c2ccccn2)CC1 (centres unmarked) | 10.9
66 | CCc1ccc2c(c1)C(c1ccc([N+](=O)[O-])cc1)=NNC(c1ccc(C)cc1)=N2 | 16.7
67 | CCNC(=S)N(CCc1c(C)[nH]c2ccc(C)cc12)Cc1cccnc1 | 11.4
68 | COc1ccc(S(=O)(=O)NC2CCCC2)cc1Cl | -7.9
69 | C=CCOc1ccc(C(=O)Nc2ncn[nH]2)cc1 | 23.3

Row | SMILES | hERG current change (%, negative = inhibition) at 1uM [%]
70 | CC(C)c1cc(-c2cc(C(=O)NCc3ccccc3)on2)nc(NC2CCCC2)n1 | 13.1
71 | O=C(Nc1ccc(S(=O)(=O)N2CCCC2)cc1)c1cccs1 | 28.9
72 | O=C(NC1CCCCC1)/C(=N\O)c1ccccn1 | 15.5
73 | Cc1cc(NC(C)C)n2c(nc3ccccc32)c1C#N | 10.1
74 | O=C(Nc1ccc(F)cc1F)c1cccc(S(=O)(=O)N2CCCCC2)c1 | 10.2
75 | O=c1c(F)cn(C2CCCO2)c(=O)n1Cc1ccc(Cl)cc1 (centres unmarked) | 3.5
76 | CCN(CC)C(=O)Cn1cc(C(=O)C(=O)N2CCN(Cc3ccc4c(c3)OCO4)CC2)c2ccccc21 | 11.1
77 | CN(C)C(=O)Oc1ccc(Br)cc1C(=O)Nc1ccc(F)c(Cl)c1 | 12.7
78 | Cc1cc(C(=O)O)ccc1N/C=C1\CCCC(C)C1=O (centres unmarked) | 2.49
79 | c1ccc(C2=Nc3ccccc3SC2c2nc3ccccc3[nH]2)cc1 (centres unmarked) | -32.8
80 | CCn1cc(C(=O)NCCCN(C)c2ccccc2)c(=O)c2cc(S(=O)(=O)N(C)C)ccc21 | 4.63
81 | Cc1c(/C=N\NC(=O)c2cc3ccccc3o2)c2ccccc2n1C | 6.96
82 | CN(C)c1cccc(NC(=O)c2ccco2)c1 | -5.84
83 | O=C(Cn1nc(C(F)F)cc1C(F)F)NNC(=S)Nc1ccc(Cl)cc1 | -0.623
84 | CC(=O)c1ccc(NC(=O)CSc2ccc3nnc(-c4ccccn4)n3n2)cc1 | -22.5
85 | COc1ccc(C(=O)N2CCn3c(C)ccc3C2C)cc1 (centres unmarked) | 12.7
86 | COc1ccc(C2SCC(=O)Nc3c2c(C)nn3C2CCOC(C)(C)C2)cc1 (centres unmarked) | 14.8
87 | CCOCCCNCc1ccc(OCC(=O)N2CCOCC2)c(OC)c1.Cl | 12.1
88 | COc1ccc(N(CC(=O)Nc2ccc(C)cn2)S(=O)(=O)c2c(C)noc2C)cc1 | -1.01
89 | CCOc1cc(C(=O)OCC(=O)c2c(C)[nH]c3ccccc23)ccc1OCC(=O)N1CCOCC1 | 3.93
